Experimental data published in patent publication US9023789B2, “Amylin analogs and pharmaceutical compositions thereof” (Novo Nordisk A/S, priority 2012, dated 2015).
At least one read-out could not be matched to a standard name with certainty. Numbered stars: 1 amine (or outer) side, 2 acyl side, 3 side chain; on linkers, the order of the positions; unused ones are H or OH. Bridge positions count the residues as written; N and C are the ends. Side chains are listed from the residue outwards. Peptide text beside a SMILES is read from it. * marks the point of attachment. C20 diacid = O=C(O)CCCCCCCCCCCCCCCCCCC(=O)*; γGlu = O=C(O)[C@H](CCC(=O)[*:2])N[*:1]

experiment: ASSAY (III) ThT fibrillation assay for physical stability; format: physicochemical
Procedure, shortened: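 Formulations with 1 μM ThT, pH adjusted as required, incubated at 37 °C with 960 rpm orbital shaking; fluorescence (ex 444/em 485 nm) read every 20 min. Fibrillation reported as mean ThT fluorescence ± SD of 4–8 replicates at time points; polypeptide concentration measured by reverse-phase HPLC before and after, post-centrifugation.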

Row | Structure (SMILES) | ThT pH 4.0 recovery (%)
1 | CC[C@H](C)[C@H](NC(=O)[C@H](C)NC(=O)CNC(=O)[C@@H]1CCCN1C(=O)[C@H](CC(N)=O)NC(=O)[C@H](CC(N)=O)NC(=O)[C@H](CO)NC(=O)[C@H](CO)NC(=O)[C@H](Cc1c[nH]cn1)NC(=O)[C@H](CCCNC(=N)N)NC(=O)[C@H](CC(C)C)NC(=O)[C@H](Cc1ccccc1)NC(=O)[C@H](CCC(=O)O)NC(=O)[C@H](C)NC(=O)[C@H](CC(C)C)NC(=O)[C@H](CCCNC(=N)N)NC(=O)[C@H](CCC(N)=O)NC(=O)[C@@H](NC(=O)[C@H](C)NC(=O)[C@@H]1CSSC[C@H](NC(=O)[C@@H](N)CCCCNC(=O)CC[C@H](NC(=O)CC[C@H](NC(=O)CCCCCCCCCCCCCCCCCCC(=O)O)C(=O)O)C(=O)O)C(=O)N[C@@H](CC(N)=O)C(=O)N[C@@H]([C@@H](C)O)C(=O)N[C@@H](C)C(=O)N[C@@H]([C@@H](C)O)C(=O)N1)[C@@H](C)O)C(=O)N[C@@H](CC(C)C)C(=O)N[C@@H](CO)C(=O)N[C@@H](CO)C(=O)N[C@H](C(=O)N[C@@H](CC(N)=O)C(=O)N[C@H](C(=O)NCC(=O)N1CCC[C@H]1C(=O)N[C@@H](CCC(=O)O)C(=O)N[C@H](C(=O)N[C@@H](Cc1ccc(O)cc1)C(N)=O)[C@@H](C)O)C(C)C)[C@@H](C)O [Example 126] (H-K([γGlu-γGlu-C20 diacid])CNTATCATQRLAEFLRHSSNNPGAILSSTNVGPETY-NH2; disulfide 2-7 (inferred); N-terminus assumed) | 0
2 | CC[C@H](C)[C@H](NC(=O)[C@H](C)NC(=O)CNC(=O)[C@H](Cc1ccccc1)NC(=O)[C@H](CC(N)=O)NC(=O)[C@@H]1CCCN1C(=O)[C@H](CO)NC(=O)[C@H](CO)NC(=O)[C@H](Cc1c[nH]cn1)NC(=O)[C@H](CCCNC(=N)N)NC(=O)[C@H](CC(C)C)NC(=O)[C@H](Cc1ccccc1)NC(=O)[C@H](CCC(=O)O)NC(=O)[C@H](C)NC(=O)[C@H](CC(C)C)NC(=O)[C@H](CCCNC(=N)N)NC(=O)[C@H](CCC(N)=O)NC(=O)[C@@H](NC(=O)[C@H](C)NC(=O)[C@@H]1CSSC[C@H](NC(=O)[C@@H](N)CCCCNC(=O)CC[C@H](NC(=O)CC[C@H](NC(=O)CCCCCCCCCCCCCCCCCCC(=O)O)C(=O)O)C(=O)O)C(=O)N[C@@H](CC(N)=O)C(=O)N[C@@H]([C@@H](C)O)C(=O)N[C@@H](C)C(=O)N[C@@H]([C@@H](C)O)C(=O)N1)[C@@H](C)O)C(=O)N1CCC[C@H]1C(=O)N[C@@H](CO)C(=O)N[C@@H](CO)C(=O)N[C@H](C(=O)N[C@@H](CC(N)=O)C(=O)N[C@H](C(=O)NCC(=O)N1CCC[C@H]1C(=O)N[C@@H](CC(N)=O)C(=O)N[C@H](C(=O)N[C@@H](Cc1ccccc1)C(N)=O)[C@@H](C)O)C(C)C)[C@@H](C)O [Example 127] (H-K([γGlu-γGlu-C20 diacid])CNTATCATQRLAEFLRHSSPNFGAIPSSTNVGPNTF-NH2; disulfide 2-7 (inferred)) | 0
3 | CC[C@H](C)[C@H](NC(=O)[C@H](C)NC(=O)CNC(=O)[C@H](Cc1ccccc1)NC(=O)[C@H](CC(N)=O)NC(=O)[C@@H]1CCCN1C(=O)[C@H](CO)NC(=O)[C@H](CO)NC(=O)[C@H](Cc1c[nH]cn1)NC(=O)[C@H](CCCNC(=N)N)NC(=O)[C@H](CC(C)C)NC(=O)[C@H](Cc1ccccc1)NC(=O)[C@H](CCC(=O)O)NC(=O)[C@H](C)NC(=O)[C@H](CC(C)C)NC(=O)[C@H](CCCNC(=N)N)NC(=O)[C@H](CCC(N)=O)NC(=O)[C@@H](NC(=O)[C@H](C)NC(=O)[C@@H]1CSSC[C@H](NC(=O)[C@@H](N)CCCCNC(=O)CC[C@H](NC(=O)CCCCCCCCCCCCCCCCCCC(=O)O)C(=O)O)C(=O)N[C@@H](CC(N)=O)C(=O)N[C@@H]([C@@H](C)O)C(=O)N[C@@H](C)C(=O)N[C@@H]([C@@H](C)O)C(=O)N1)[C@@H](C)O)C(=O)N1CCC[C@H]1C(=O)N[C@@H](CO)C(=O)N[C@@H](CO)C(=O)N[C@H](C(=O)N[C@@H](CC(N)=O)C(=O)N[C@H](C(=O)NCC(=O)N[C@@H](CO)C(=O)N[C@@H](Cc1c[nH]cn1)C(=O)N[C@H](C(=O)N[C@@H](Cc1ccc(O)cc1)C(N)=O)[C@@H](C)O)C(C)C)[C@@H](C)O [Example 128] (H-K([γGlu-C20 diacid])CNTATCATQRLAEFLRHSSPNFGAIPSSTNVGSHTY-NH2; disulfide 2-7 (inferred); N-terminus assumed) | 100
4 | CC[C@H](C)[C@H](NC(=O)[C@H](C)NC(=O)CNC(=O)[C@H](Cc1ccccc1)NC(=O)[C@H](CC(N)=O)NC(=O)[C@@H]1CCCN1C(=O)[C@H](CO)NC(=O)[C@H](CO)NC(=O)[C@H](Cc1c[nH]cn1)NC(=O)[C@H](CCCNC(=N)N)NC(=O)[C@H](CC(C)C)NC(=O)[C@H](Cc1ccccc1)NC(=O)[C@H](CC(=O)O)NC(=O)[C@H](C)NC(=O)[C@H](CC(C)C)NC(=O)[C@H](CCCNC(=N)N)NC(=O)[C@H](CCC(N)=O)NC(=O)[C@@H](NC(=O)[C@H](C)NC(=O)[C@@H]1CSSC[C@H](NC(=O)[C@@H](N)CCCCNC(=O)CC[C@H](NC(=O)CCCCCCCCCCCCCCCCCCC(=O)O)C(=O)O)C(=O)N[C@@H](CC(N)=O)C(=O)N[C@@H]([C@@H](C)O)C(=O)N[C@@H](C)C(=O)N[C@@H]([C@@H](C)O)C(=O)N1)[C@@H](C)O)C(=O)N1CCC[C@H]1C(=O)N[C@@H](CO)C(=O)N[C@@H](CO)C(=O)N[C@H](C(=O)N[C@@H](CC(N)=O)C(=O)N[C@H](C(=O)NCC(=O)N1CCC[C@H]1C(=O)N[C@@H](CCCNC(=N)N)C(=O)N[C@H](C(=O)N[C@@H](Cc1ccc(O)cc1)C(N)=O)[C@@H](C)O)C(C)C)[C@@H](C)O [Example 129] (H-K([γGlu-C20 diacid])CNTATCATQRLADFLRHSSPNFGAIPSSTNVGPRTY-NH2; disulfide 2-7 (inferred); N-terminus assumed) | 100
5 | CC[C@H](C)[C@H](NC(=O)[C@H](C)NC(=O)CNC(=O)[C@H](Cc1ccccc1)NC(=O)[C@H](CC(N)=O)NC(=O)[C@@H]1CCCN1C(=O)[C@H](CO)NC(=O)[C@H](CO)NC(=O)[C@H](Cc1c[nH]cn1)NC(=O)[C@H](CCCNC(=N)N)NC(=O)[C@H](CC(C)C)NC(=O)[C@H](Cc1ccccc1)NC(=O)[C@H](CC(=O)O)NC(=O)[C@H](C)NC(=O)[C@H](CC(C)C)NC(=O)[C@H](CCCNC(=N)N)NC(=O)[C@H](CCC(N)=O)NC(=O)[C@@H](NC(=O)[C@H](C)NC(=O)[C@@H]1CSSC[C@H](NC(=O)[C@@H](N)CCCCNC(=O)CC[C@H](NC(=O)CC[C@H](NC(=O)CCCCCCCCCCCCCCCCCCC(=O)O)C(=O)O)C(=O)O)C(=O)N[C@@H](CC(N)=O)C(=O)N[C@@H]([C@@H](C)O)C(=O)N[C@@H](C)C(=O)N[C@@H]([C@@H](C)O)C(=O)N1)[C@@H](C)O)C(=O)N1CCC[C@H]1C(=O)N[C@@H](CO)C(=O)N[C@@H](CO)C(=O)N[C@H](C(=O)N[C@@H](CC(N)=O)C(=O)N[C@H](C(=O)NCC(=O)N1CCC[C@H]1C(=O)N[C@@H](CCCNC(=N)N)C(=O)N[C@H](C(=O)N[C@@H](Cc1ccc(O)cc1)C(N)=O)[C@@H](C)O)C(C)C)[C@@H](C)O [Example 130] (H-K([γGlu-γGlu-C20 diacid])CNTATCATQRLADFLRHSSPNFGAIPSSTNVGPRTY-NH2; disulfide 2-7 (inferred); N-terminus assumed) | 98
